Test results taken from US20230250147A1, “GLP-1R AGONISTIC PEPTIDES WITH REDUCED ACTIVITY” (SANOFI, priority 2020, published 2023).

T1: Mouse GLP-1R (Mus musculus, UniProt O35659)
T1 construct: expressed in transfected cells; host or cells: HEK-293
T1 sequence (O35659 22-463): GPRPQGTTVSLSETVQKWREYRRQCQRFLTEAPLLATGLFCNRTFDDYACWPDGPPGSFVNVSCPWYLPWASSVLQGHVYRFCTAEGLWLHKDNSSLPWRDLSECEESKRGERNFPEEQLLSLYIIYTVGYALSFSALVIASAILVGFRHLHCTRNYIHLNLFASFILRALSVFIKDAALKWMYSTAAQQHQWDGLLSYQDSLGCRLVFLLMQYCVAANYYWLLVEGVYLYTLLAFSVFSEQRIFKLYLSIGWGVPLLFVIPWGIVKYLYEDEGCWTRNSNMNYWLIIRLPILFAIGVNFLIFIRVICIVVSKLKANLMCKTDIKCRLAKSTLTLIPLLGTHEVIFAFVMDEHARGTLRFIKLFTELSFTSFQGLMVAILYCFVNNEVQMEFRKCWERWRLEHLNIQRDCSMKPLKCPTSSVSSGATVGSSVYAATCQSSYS

B1: 71 (protein)
chain: FGEGTFTSDKSKQLEKRLVRLFIEWLIAGGHSSGKPPPKGGGGGGGSGGGGSGGGGSA[… human IgG4 Fc with changes …]GGGSGSAHPIPDSSPLLQFGGQVRQRYLYTDDACQTEAHLEIREDGTVGGAADQSPESLLQLKALKPGVIQILGVKTSRFLCQRPDGALYGSLHFDPEACSFRELLLEDGYNVYQSEAHGLPLHLPGCKSPHRDPAPRGPARFLPLPGLPPAPPEPPGILAPQPPDVGSSDPLSMVGSQGRSPSYAS
modifications: Fusion Protein
B2: 72 (protein)
chain: HGEGTFTSDKSKQLEKRLFRLFIEWLIAGGHSSGKPPPKGGGGGGGSGGGGSGGGGSA[… human IgG4 Fc with changes …]GGGSGSAHPIPDSSPLLQFGGQVRQRYLYTDDACQTEAHLEIREDGTVGGAADQSPESLLQLKALKPGVIQILGVKTSRFLCQRPDGALYGSLHFDPEACSFRELLLEDGYNVYQSEAHGLPLHLPGCKSPHRDPAPRGPARFLPLPGLPPAPPEPPGILAPQPPDVGSSDPLSMVGSQGRSPSYAS
modifications: Fusion Protein
B3: 78 (protein)
chain: HGEGTFTSDKSKQLEKRLVRLFYEWLIAGGHSSGKPPPKGGGGGGGSGGGGSGGGGSA[… human IgG4 Fc with changes …]GGGSGSAHPIPDSSPLLQFGGQVRQRYLYTDDACQTEAHLEIREDGTVGGAADQSPESLLQLKALKPGVIQILGVKTSRFLCQRPDGALYGSLHFDPEACSFRELLLEDGYNVYQSEAHGLPLHLPGCKSPHRDPAPRGPARFLPLPGLPPAPPEPPGILAPQPPDVGSSDPLSMVGSQGRSPSYAS
modifications: Fusion Protein
B4: 80 (protein)
chain: HGEGTFTSDKSKQLEKRLVRLFILWLIAGGHSSGKPPPKGGGGGGGSGGGGSGGGGSA[… human IgG4 Fc with changes …]GGGSGSAHPIPDSSPLLQFGGQVRQRYLYTDDACQTEAHLEIREDGTVGGAADQSPESLLQLKALKPGVIQILGVKTSRFLCQRPDGALYGSLHFDPEACSFRELLLEDGYNVYQSEAHGLPLHLPGCKSPHRDPAPRGPARFLPLPGLPPAPPEPPGILAPQPPDVGSSDPLSMVGSQGRSPSYAS
modifications: Fusion Protein
B5: 74 (protein)
chain: HGEGTFTSDKSKQLEKRLVILFIEWLIAGGHSSGKPPPKGGGGGGGSGGGGSGGGGSA[… human IgG4 Fc with changes …]GGGSGSAHPIPDSSPLLQFGGQVRQRYLYTDDACQTEAHLEIREDGTVGGAADQSPESLLQLKALKPGVIQILGVKTSRFLCQRPDGALYGSLHFDPEACSFRELLLEDGYNVYQSEAHGLPLHLPGCKSPHRDPAPRGPARFLPLPGLPPAPPEPPGILAPQPPDVGSSDPLSMVGSQGRSPSYAS
modifications: Fusion Protein
B6: 82 (protein)
chain: HGEGTFTSDKSKQLEKRLVRLFIELLIAGGHSSGKPPPKGGGGGGGSGGGGSGGGGSA[… human IgG4 Fc with changes …]GGGSGSAHPIPDSSPLLQFGGQVRQRYLYTDDACQTEAHLEIREDGTVGGAADQSPESLLQLKALKPGVIQILGVKTSRFLCQRPDGALYGSLHFDPEACSFRELLLEDGYNVYQSEAHGLPLHLPGCKSPHRDPAPRGPARFLPLPGLPPAPPEPPGILAPQPPDVGSSDPLSMVGSQGRSPSYAS
modifications: Fusion Protein
B7: 76 (protein)
chain: HGEGTFTSDKSKQLEKRLVRLLIEWLIAGGHSSGKPPPKGGGGGGGSGGGGSGGGGSA[… human IgG4 Fc with changes …]GGGSGSAHPIPDSSPLLQFGGQVRQRYLYTDDACQTEAHLEIREDGTVGGAADQSPESLLQLKALKPGVIQILGVKTSRFLCQRPDGALYGSLHFDPEACSFRELLLEDGYNVYQSEAHGLPLHLPGCKSPHRDPAPRGPARFLPLPGLPPAPPEPPGILAPQPPDVGSSDPLSMVGSQGRSPSYAS
modifications: Fusion Protein
B8: 79 (protein)
chain: HGEGTFTSDKSKQLEKRLVRLFFEWLIAGGHSSGKPPPKGGGGGGGSGGGGSGGGGSA[… human IgG4 Fc with changes …]GGGSGSAHPIPDSSPLLQFGGQVRQRYLYTDDACQTEAHLEIREDGTVGGAADQSPESLLQLKALKPGVIQILGVKTSRFLCQRPDGALYGSLHFDPEACSFRELLLEDGYNVYQSEAHGLPLHLPGCKSPHRDPAPRGPARFLPLPGLPPAPPEPPGILAPQPPDVGSSDPLSMVGSQGRSPSYAS
modifications: Fusion Protein
B9: 81 (protein)
chain: HGEGTFTSDKSKQLEKRLVRLFIYWLIAGGHSSGKPPPKGGGGGGGSGGGGSGGGGSA[… human IgG4 Fc with changes …]GGGSGSAHPIPDSSPLLQFGGQVRQRYLYTDDACQTEAHLEIREDGTVGGAADQSPESLLQLKALKPGVIQILGVKTSRFLCQRPDGALYGSLHFDPEACSFRELLLEDGYNVYQSEAHGLPLHLPGCKSPHRDPAPRGPARFLPLPGLPPAPPEPPGILAPQPPDVGSSDPLSMVGSQGRSPSYAS
modifications: Fusion Protein
B10: 67 (protein)
chain: GHGEGTFTSDLSIQLEEEAVRLFIEWLLAGGPSSGKPPPKGGGGGGGSGGGGSGGGGSA[… human IgG4 Fc with changes …]GGGSGSAHPIPDSSPLLQFGGQVRQRYLYTDDACQTEAHLEIREDGTVGGAADQSPESLLQLKALKPGVIQILGVKTSRFLCQRPDGALYGSLHFDPEACSFRELLLEDGYNVYQSEAHGLPLHLPGCKSPHRDPAPRGPARFLPLPGLPPAPPEPPGILAPQPPDVGSSDPLSMVGSQGRSPSYAS
modifications: Fusion Protein
B11: 70 (protein)
chain: GHGEGTFTSDLSIQLEEEAVRLFIEWLLAKGKSKGKPKPKGGGGGGGSGGGGSGGGGSA[… human IgG4 Fc with changes …]GGGSGSAHPIPDSSPLLQFGGQVRQRYLYTDDACQTEAHLEIREDGTVGGAADQSPESLLQLKALKPGVIQILGVKTSRFLCQRPDGALYGSLHFDPEACSFRELLLEDGYNVYQSEAHGLPLHLPGCKSPHRDPAPRGPARFLPLPGLPPAPPEPPGILAPQPPDVGSSDPLSMVGSQGRSPSYAS
modifications: Fusion Protein
B12: 68 (protein)
chain: GHGEGTFTSDLSIQLEEEAVRLFIEWLLAGGPSKGKPPPKGGGGGGGSGGGGSGGGGSA[… human IgG4 Fc with changes …]GGGSGSAHPIPDSSPLLQFGGQVRQRYLYTDDACQTEAHLEIREDGTVGGAADQSPESLLQLKALKPGVIQILGVKTSRFLCQRPDGALYGSLHFDPEACSFRELLLEDGYNVYQSEAHGLPLHLPGCKSPHRDPAPRGPARFLPLPGLPPAPPEPPGILAPQPPDVGSSDPLSMVGSQGRSPSYAS
modifications: Fusion Protein
B13: 69 (protein)
chain: GHGEGTFTSDLSIQLEEEAVRLFIEWLLAGGPSSGKPKPKGGGGGGGSGGGGSGGGGSA[… human IgG4 Fc with changes …]GGGSGSAHPIPDSSPLLQFGGQVRQRYLYTDDACQTEAHLEIREDGTVGGAADQSPESLLQLKALKPGVIQILGVKTSRFLCQRPDGALYGSLHFDPEACSFRELLLEDGYNVYQSEAHGLPLHLPGCKSPHRDPAPRGPARFLPLPGLPPAPPEPPGILAPQPPDVGSSDPLSMVGSQGRSPSYAS
modifications: Fusion Protein
B14: 3 (protein)
chain: GHGEGTFTSDKSKQLEEEAVRLFIEWLKAGGPKKIRYSGGGGGGGSGGGGSGGGGSA[… human IgG4 Fc with changes …]GGGSGSAHPIPDSSPLLQFGGQVRQRYLYTDDACQTEAHLEIREDGTVGGAADQSPESLLQLKALKPGVIQILGVKTSRFLCQRPDGALYGSLHFDPEACSFRELLLEDGYNVYQSEAHGLPLHLPGCKSPHRDPAPRGPARFLPLPGLPPAPPEPPGILAPQPPDVGSSDPLSMVGSQGRSPSYAS
modifications: Fusion Protein
B15: 5 (protein)
chain: GHGEGTFTSDKSKQLEEEAVRLFIEWLKAGGPKKIRYSGGGGGGGSGGGGSGGGGSA[… human IgG4 Fc with changes …]GGGSGSAHPIPDSSPLLQFGGQVRQRYLYTDDACQTEAHLEIREDGTVGGAADQSPESLLQLKALKPGVIQILGVKTSRFLCQRPDGALYGSLHFDPEACSFRELLLEDGYNVYQSEAHGLPLHLPGCKSPHRDPAPRGPARFLPLPGLPPAPPEPPGILAPQPPDVGSSDPLSMVYPSQGRSPSYAS
modifications: Fusion Protein
B16: 83 (protein)
chain: HGEGTFTSDKSKQLEKRLVRLFIEWLIAVGHSGKPPPKGGGGGGGSGGGGSGGGGSA[… human IgG4 Fc with changes …]GGGSGSAHPIPDSSPLLQFGGQVRQRYLYTDDACQTEAHLEIREDGTVGGAADQSPESLLQLKALKPGVIQILGVKTSRFLCQRPDGALYGSLHFDPEACSFRELLLEDGYNVYQSEAHGLPLHLPGCKSPHRDPAPRGPARFLPLPGLPPAPPEPPGILAPQPPDVGSSDPLSMVGSQGRSPSYAS
modifications: Fusion Protein

Target: T2, Human GLP-1R (Homo sapiens, UniProt P43220)
T2 construct: expressed in transfected cells; host or cells: HEK-293
Assay: HTRF cAMP assay in HEK-293 cells, human GLP-1R
Format: cell-based
Conditions: not given

T2 sequence (P43220 24-463): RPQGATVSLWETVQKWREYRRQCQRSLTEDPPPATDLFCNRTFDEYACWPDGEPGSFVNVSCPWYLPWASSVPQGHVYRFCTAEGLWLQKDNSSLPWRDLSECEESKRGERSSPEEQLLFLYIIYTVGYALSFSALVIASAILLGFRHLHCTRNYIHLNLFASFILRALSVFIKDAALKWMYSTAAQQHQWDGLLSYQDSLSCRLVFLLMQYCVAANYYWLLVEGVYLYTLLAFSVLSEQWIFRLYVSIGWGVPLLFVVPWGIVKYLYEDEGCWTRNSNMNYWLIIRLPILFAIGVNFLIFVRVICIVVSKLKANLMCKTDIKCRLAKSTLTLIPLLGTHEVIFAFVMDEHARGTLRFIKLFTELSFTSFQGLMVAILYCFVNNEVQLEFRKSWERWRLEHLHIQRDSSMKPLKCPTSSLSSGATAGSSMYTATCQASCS

EC50 | Molecule
0.0278 nM | B1
0.0204 nM | B2
0.051 nM | B3
0.0486 nM | B4
0.0135 nM | B5
0.0901 nM | B6
0.0392 nM | B7
0.243 nM | B8
0.0499 nM | B9
0.0365 nM | B10
0.0414 nM | B11
0.0167 nM | B12
0.0153 nM | B13
0.212 nM | B14
0.125 nM | B15
0.0293 nM | B16

Target: T1, Mouse GLP-1R
Assay: HTRF cAMP assay in HEK-293 cells, mouse GLP-1R
Format: cell-based
Conditions: not given

EC50 | Molecule
0.0536 nM | B1
0.0775 nM | B2
0.323 nM | B3
0.0644 nM | B4
0.0183 nM | B5
0.0725 nM | B6
0.19 nM | B7
2.51 nM | B8
0.0674 nM | B9
0.0102 nM | B10
0.0831 nM | B11
0.00942 nM | B12
0.0173 nM | B13
0.0972 nM | B14
0.0965 nM | B15
0.056 nM | B16

Target: T3, Monkey GLP-1R (Macaca fascicularis, UniProt F8V479)
T3 construct: expressed in transfected cells; host or cells: HEK-293
Assay: HTRF cAMP assay in HEK-293 cells, monkey GLP-1R
Format: cell-based
Conditions: not given

T3 sequence (F8V479 24-463): as the sequence (P43220 24-463) above, with S112N, F120S, S202G, L205V, L237F, W241R, I249V counted along it

EC50 | Molecule
0.0266 nM | B1
0.025 nM | B2
0.0525 nM | B3
0.0425 nM | B4
0.0137 nM | B5
0.109 nM | B6
0.0403 nM | B7
0.296 nM | B8
0.0494 nM | B9
0.0216 nM | B10
0.0388 nM | B11
0.0108 nM | B12
0.0147 nM | B13
0.279 nM | B14
0.196 nM | B15
0.0281 nM | B16

System: not listed separately
Assay: Conformational and thermal stability on UNit (intrinsic fluorescence and static light scattering)
Format: physicochemical
Conditions: UNit SLS 266 nm, 5 mg/mL in phosphate buffer pH 7.4
Protocol: Conformational stability and propensity to aggregate was determined simultaneously for the GLP-1RA/FGF21 Fc fusion proteins using a UNit (Unchained Labs, Calif., USA). The UNit combines the analysis of intrinsic fluorescence of a protein or polypeptide to detect unfolding of the protein or polypeptide and a Static Light Scattering (SLS) measurement in order to investigate aggregation behavior.
Data were acquired for the fusion proteins at a concentration of 5 mg/mL formulated in phosphate buffer at pH 7.4. A volume of 9 μL of each sample were loaded into a UNi capillary holder and analyzed in triplicate on the UNit. The temperature was increased from 20 to 95° C. at a constant linear rate of 0.3° C./minutes. The BaryCentric Mean (BCM) indicating the intrinsic fluorescence and SLS signals detected with a 266 nm laser were plotted against the applied temperature in order to obtain melting temperatures (Tm) and aggregation onset temperatures (Tagg). Data were analyzed using the UNit Analysis software v.

Molecule | Tagg (aggregation onset temperature)
B14 | 65.3 °C
B15 | 63.2 °C

Same assay, conditions: UNit, 5 mg/mL in phosphate buffer pH 7.4

Molecule | Tm (melting temperature)
B14 | 63.9 °C
B15 | 62.6 °C
